Source: publication PMC4336329 (PLoS ONE, 2015)
Among all 310,000 compounds or so, about 14,000 (4.5%) showed an effect of 50% or more. Effects have a minus sign here. This is one part of the list.

The compounds below were run against human ether-à-go-go-related gene (hERG) potassium channel (human, UniProt Q12809) (assay: primary screen, population patch clamp on CHO cells stably expressing hERG).
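Also: peak tail current of the secondary pulse compared with the same well before compound.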

Chain of human ether-à-go-go-related gene (hERG) potassium channel (Q12809 whole entry, looked up): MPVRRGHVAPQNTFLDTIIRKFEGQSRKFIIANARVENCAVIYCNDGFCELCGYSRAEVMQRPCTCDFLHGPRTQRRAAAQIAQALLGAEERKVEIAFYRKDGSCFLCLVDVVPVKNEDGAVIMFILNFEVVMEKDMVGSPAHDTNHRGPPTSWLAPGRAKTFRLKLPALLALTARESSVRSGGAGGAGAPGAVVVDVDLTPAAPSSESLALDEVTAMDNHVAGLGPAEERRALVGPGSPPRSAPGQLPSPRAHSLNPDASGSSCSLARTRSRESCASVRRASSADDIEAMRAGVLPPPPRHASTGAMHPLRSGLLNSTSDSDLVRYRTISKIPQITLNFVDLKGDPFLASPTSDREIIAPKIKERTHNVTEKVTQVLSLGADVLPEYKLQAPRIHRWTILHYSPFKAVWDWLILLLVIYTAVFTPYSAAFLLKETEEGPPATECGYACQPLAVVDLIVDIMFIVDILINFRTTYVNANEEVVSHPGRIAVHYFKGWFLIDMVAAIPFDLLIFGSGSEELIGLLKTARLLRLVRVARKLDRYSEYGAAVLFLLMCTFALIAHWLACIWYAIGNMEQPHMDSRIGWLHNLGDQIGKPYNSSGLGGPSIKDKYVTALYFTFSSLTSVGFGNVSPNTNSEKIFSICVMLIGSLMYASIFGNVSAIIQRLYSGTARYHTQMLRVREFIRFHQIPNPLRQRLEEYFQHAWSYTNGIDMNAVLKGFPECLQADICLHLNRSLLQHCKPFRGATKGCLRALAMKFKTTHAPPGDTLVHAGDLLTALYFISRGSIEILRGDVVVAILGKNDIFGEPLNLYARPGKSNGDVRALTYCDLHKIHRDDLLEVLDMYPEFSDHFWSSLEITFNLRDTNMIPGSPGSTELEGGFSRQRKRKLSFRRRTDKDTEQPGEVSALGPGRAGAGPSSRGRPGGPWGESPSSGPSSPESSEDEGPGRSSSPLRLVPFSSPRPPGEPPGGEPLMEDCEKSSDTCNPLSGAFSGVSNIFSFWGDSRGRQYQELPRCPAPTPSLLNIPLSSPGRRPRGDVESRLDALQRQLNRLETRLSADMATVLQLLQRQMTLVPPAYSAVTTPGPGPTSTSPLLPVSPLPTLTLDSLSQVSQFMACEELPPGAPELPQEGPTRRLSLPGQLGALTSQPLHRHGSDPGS

Going from COc1ccc(CN(CC(=O)NC2CCCC2)C(=O)CCC(=O)Nc2nccs2)cc1 to COc1ccc(CNC(=O)CN(C(=O)CCC(=O)Nc2ccccn2)c2ccc3c(c2)OCO3)cc1, the “hERG current change (%, negative = inhibition) at 10uM” value rises from -11.7% to -2.13%.

Compared with CCS(=O)(=O)c1ncc(Cl)c(C(=O)Nc2ccc(S(=O)(=O)N3CCCC(C)C3)cc2)n1 (centres unmarked), O=C(Nc1ccc(F)cc1)C1CCCN(S(=O)(=O)c2ccc(-n3cnnn3)cc2)C1 (centres unmarked) is lower in “hERG current change (%, negative = inhibition) at 10uM” value: 10.7% for the first, -16.8% for the second.

Compared with O=C1CCC(=O)N1CC(=O)N1c2ccccc2Sc2ccccc21, CCOC(=O)c1ccc(S(=O)(=O)N2CC(=O)Nc3ccccc32)cc1 is higher in “hERG current change (%, negative = inhibition) at 10uM” value: 3.19% for the first, 12.5% for the second.

Compared with Cc1ccc(S(=O)(=O)N2CC=C(c3c(C)n(C)c4ccccc34)CC2)cc1, COc1cccc(/C=N/NC(=O)CNC(=O)c2ccc(S(=O)(=O)N3CCCC3)cc2)c1OC is higher in “hERG current change (%, negative = inhibition) at 10uM” value: 8.88% for the first, 10.4% for the second.

Going from O=C(Cc1coc2ccc3ccccc3c12)N1CCCC1 to CCOc1ccccc1N1CCN(C(=O)COc2ccc3c(C)cc(=O)oc3c2)CC1, the “hERG current change (%, negative = inhibition) at 10uM” value rises from -6.75% to -6.28%.

First: O=C(Cc1c(F)cccc1Cl)Nc1cc(S(=O)(=O)N2CCCCC2)ccc1N1CCOCC1
Second: O=C(NCC(c1ccco1)N1CCOCC1)C1CCCCC1 (centres unmarked)
The “hERG current change (%, negative = inhibition) at 10uM” value of the first is lower: -52.2% for the first, -0.0207% for the second.

Compared with CCCOc1ccc(N2C(=O)CC(SCc3nc4ccccc4[nH]3)C2=O)cc1 (centres unmarked), CCOc1ccc(NC(=O)Cn2c(=O)n(CC3CCCO3)c(=O)c3ccccc32)cc1 (centres unmarked) is higher in “hERG current change (%, negative = inhibition) at 10uM” value: -41.2% for the first, -1.78% for the second.

Going from Cc1cc(NC(=O)c2ccoc2C)no1 to Cc1ccoc1C(=O)Nc1ccc(CC(=O)O)cc1, the “hERG current change (%, negative = inhibition) at 10uM” value falls from 5.83% to 2.73%.

Going from CCc1ccccc1Nc1nc(N)nc(COC(=O)CCNS(=O)(=O)c2ccccc2)n1 to O=S(=O)(Nc1cccc2cccnc12)c1ccccc1, the “hERG current change (%, negative = inhibition) at 10uM” value rises from -62.7% to 16%.

First: O=[N+]([O-])c1ccc(NCCOc2ccccc2Cl)nc1
Second: N#Cc1cccnc1Oc1ccccc1
The “hERG current change (%, negative = inhibition) at 10uM” value of the first is lower: -1.09% for the first, 8.55% for the second.

Going from CCOC(=O)C1(Cc2cccc(F)c2)CCN(C(=O)Cn2cnnn2)CC1 to CCOC(=O)C1CCN(C(=O)COC(=O)c2oc3ccccc3c2C)CC1, the “hERG current change (%, negative = inhibition) at 10uM” value falls from -6.4% to -28.3%.

Compared with COc1cccc(OC2OC3COC(C)(C)OC3C(O)C2NC(C)=O)c1 (centres unmarked), CCOC(=O)[C@@H]1[C@H]2COc3cc(OC)ccc3[C@@H]2N2C(=O)N(c3cccc(C)c3)C(=O)[C@@]12C is lower in “hERG current change (%, negative = inhibition) at 10uM” value: 7.26% for the first, -5.14% for the second.

Going from O=C(NCCN1C(=O)S/C(=C\c2ccc(OC(F)F)cc2)C1=O)c1cnccn1 to COc1ccc(-c2nnn(-c3cc(Cl)cc(Cl)c3)c2N)cc1, the “hERG current change (%, negative = inhibition) at 10uM” value rises from -57.1% to 18.3%.

Going from COCCn1c(C(C)C)nc2sc3ccccc3c(=O)c2c1=O to COc1cc(/C=c2/sc3nc(-c4ccccc4)c(-c4ccccc4)n3c2=O)cc(OC)c1OC, the “hERG current change (%, negative = inhibition) at 10uM” value rises from -3.9% to -3.82%.

Going from CN1CCN(c2cc(C(F)(F)F)nc3ccc(F)cc23)CC1 to Cc1nc2ccccc2nc1CN1CCN(Cc2ccc(F)c(F)c2)C(CCO)C1 (centres unmarked), the “hERG current change (%, negative = inhibition) at 10uM” value falls from -9.27% to -40.4%.

Compared with Nc1c(C(=O)OCC(=O)NCc2ccccc2)[nH]c(=O)[nH]c1=O, CCC(C(=O)OCC(=O)Nc1ccccc1-c1ccccc1)c1ccccc1 (centres unmarked) is lower in “hERG current change (%, negative = inhibition) at 10uM” value: 14% for the first, 2.58% for the second.

First: Cc1ccc(-c2nc3ccccc3o2)cc1NC(=O)Cc1cccs1
Second: c1ccc(Cc2nnc3sc(-c4ccc5c(c4)OCO5)nn23)cc1
The “hERG current change (%, negative = inhibition) at 10uM” value of the first is higher: 18.7% for the first, 5.05% for the second.

Going from CC(NC(=O)CCC(=O)NC(C)c1ccccc1)c1ccccc1 (centres unmarked) to O=C(CSc1ncn[nH]1)NCCC(c1ccccc1)c1ccccc1, the “hERG current change (%, negative = inhibition) at 10uM” value falls from 5.2% to -2.61%.

First: CON(C)c1nc(OCC#N)nc(N(C)C)n1
Second: Cc1cc(C)c2nc(SCC#N)cc(C)c2c1
The “hERG current change (%, negative = inhibition) at 10uM” value of the first is higher: 27.3% for the first, 13.5% for the second.

Going from COC(=O)[C@@H](NC(=O)Nc1cccc(Br)c1)C(C)C to COCCCNCCCCOc1cccc(Br)c1.O=C(O)C(=O)O, the “hERG current change (%, negative = inhibition) at 10uM” value falls from -1.91% to -19.3%.

Going from CCCC(=O)Nc1sc2c(c1C(=O)Nc1ccccn1)CCCC2 to COc1cc(NC(=O)c2cccnc2)c(Cl)cc1NC(=O)c1ccccc1, the “hERG current change (%, negative = inhibition) at 10uM” value rises from 0.458% to 2.88%.

First: O=C1/C(=C\c2ccncc2)N2CCC1CC2
Second: O=C1CCC(=O)N1c1ccc(CSc2nnnn2C2CCCCC2)cc1
The “hERG current change (%, negative = inhibition) at 10uM” value of the first is higher: 5.88% for the first, -3.22% for the second.

Going from CN1C(=O)Nc2cccc3cccc1c23 to CCc1n[nH]c(=S)n1/N=C/c1ccc(N(C)c2ccccc2)cc1, the “hERG current change (%, negative = inhibition) at 10uM” value rises from 2.81% to 18.8%.

Compared with COc1ccc(CCn2c(=O)[nH]c3cc(C(=O)N4CCN(c5ccccc5)CC4)ccc3c2=O)cc1OC, COc1ccccc1NS(=O)(=O)c1ccc2oc(SCC(=O)N3CCNC3=O)nc2c1 is lower in “hERG current change (%, negative = inhibition) at 10uM” value: 14.1% for the first, -21.6% for the second.

First: Cn1cnnc1SCC(=O)NC(=O)NC1CCCC1
Second: O=C(CCl)N(C1CCCC1)C1CCS(=O)(=O)C1 (centres unmarked)
The “hERG current change (%, negative = inhibition) at 10uM” value of the first is lower: -0.498% for the first, 24.4% for the second.

First: Cc1ccccc1Cc1c(C)nc2nc(SCC(=O)N3CCC4(CC3)OCCO4)nn2c1C
Second: CCOC(=O)c1sc(NCCNc2nc(C)c(C(=O)OCC)s2)nc1C
The “hERG current change (%, negative = inhibition) at 10uM” value of the first is lower: -20.1% for the first, 4.45% for the second.

Going from CCOc1ccc(NC(=O)Nc2cccc(C)n2)cc1 to COc1cc(/C(C)=N/NC(=O)C(O)(c2ccccc2)c2ccccc2)ccc1O, the “hERG current change (%, negative = inhibition) at 10uM” value falls from 19.3% to -10.3%.

First: N/C(=N\OC(=O)c1ccc(Br)o1)c1ccccn1
Second: COc1cc(C(O)P(=O)(OCC(C)C)OCC(C)C)cc(OC)c1OC (centres unmarked)
The “hERG current change (%, negative = inhibition) at 10uM” value of the first is lower: 9.52% for the first, 11.2% for the second.
